{
  "source": "ChEMBL document CHEMBL4888484",
  "about": "“Replenishing the malaria drug discovery pipeline: Screening and hit evaluation of the MMV Hit Generation Library 1 (HGL1) against asexual blood stage Plasmodium falciparum ,using a nano luciferase reporter read-out” (2022)",
  "note": "Hit rate of the full screen: of about 150,000 compounds, about 540 (0.36%) showed an effect of 50% or more. The list shows a part of the results.",
  "data": [
    {"test_system": "Plasmodium falciparum", "assay": "Primary screen in NF54 nanoGlo assay, in single point, at 2uM, 72h; a lower Z score goes with more inhibition", "assay_type": "functional, Erythrocyte", "details": "timepoint 72 hour", "units": {"% Inhibition": "%"}, "values": [
      {"smiles": "Cc1ccccc1Cn1cnc2c1c(=O)n(C1CC1)c(=O)n2-c1ccccc1C", "% Inhibition": 5, "Z score": -0.48},
      {"smiles": "N#C[C@H](c1nc2ccccc2nc1N1CCN(c2ccc(F)cc2)CC1)S(=O)(=O)c1cccs1", "% Inhibition": -9, "Z score": 0.81},
      {"smiles": "CC[C@H](C)N(Cc1c(-c2ccccc2)nn(C)c1N(C)C)C(=O)C1CCC1", "% Inhibition": -4, "Z score": 0.84},
      {"smiles": "Cc1nnc([C@@H]2CC3(CCN(C(=O)c4cccnc4)CC3)CN2Cc2ccccc2)o1", "% Inhibition": 0, "Z score": -0.06},
      {"smiles": "Cc1nn(-c2ccncc2F)c(C)c1[C@@H]1CCC(=O)N1", "% Inhibition": -10, "Z score": 1.09},
      {"smiles": "NC(=O)CCS(=O)(=O)CCn1cc(-c2cc(F)cc(F)c2)nn1", "% Inhibition": -5, "Z score": 0.74},
      {"smiles": "Cc1nn(CCO)c(C)c1-c1cc(-c2cc(F)c(F)c(F)c2)nc(N)c1C#N", "% Inhibition": -5, "Z score": 0.64},
      {"smiles": "CO[C@@H](C)c1nc(CN(C)c2cccc(-n3cc(C)cn3)n2)cs1", "% Inhibition": 5, "Z score": -0.61},
      {"smiles": "CCn1cc(S(=O)(=O)NCc2cc(C(C)C)on2)cn1", "% Inhibition": -9, "Z score": 1.69},
      {"smiles": "CCOC(=O)N1CCN(C(=O)[C@H]2CCc3nn(C)c(=O)cc3C2)CC1", "% Inhibition": -20, "Z score": 2.57},
      {"smiles": "COc1cc2c(cc1CNC(=O)c1ccc(C)cc1)OCCCO2", "% Inhibition": -20, "Z score": 2.81},
      {"smiles": "O=C(c1cc2n(n1)CCCC2)N1CC[C@](CO)(c2ccccc2)C1", "% Inhibition": -7, "Z score": 1.04},
      {"smiles": "Cc1ccc(C(=O)Nc2ccc3ncnc(N4CCCCC4)c3c2)c(C)c1", "% Inhibition": -13, "Z score": 1.3},
      {"smiles": "CC(=O)c1ccc2c(c1)N(Cc1cccc(C(=O)N3CCN(Cc4ccc5c(c4)OCO5)CC3)c1)C(=O)CO2", "% Inhibition": -19, "Z score": 1.66},
      {"smiles": "COCCN(C[C@@H]1CC=CCC1)c1cc(N2CCOCC2)ncn1", "% Inhibition": -3, "Z score": 0.43},
      {"smiles": "CN1C(=O)[C@H]2CN(c3ncccc3F)C[C@H]2C1=O", "% Inhibition": -3, "Z score": 0.5},
      {"smiles": "Cc1noc([C@H]2C[C@H](O)CN2c2ccc(C#N)nc2)n1", "% Inhibition": -4, "Z score": 0.49},
      {"smiles": "COc1ccc2nc3c(cc2c1)c(NC(=O)C1CCCCC1)nn3CC(C)C", "% Inhibition": -9, "Z score": 1.11},
      {"smiles": "Cc1cc(Cl)cc(C(=O)N2CCC[C@H](Cn3ccnn3)C2)c1", "% Inhibition": -6, "Z score": 0.9},
      {"smiles": "O=C(Cc1cccs1)N1CCN(c2nnc3ccc(C(F)(F)F)cn23)CC1", "% Inhibition": -25, "Z score": 2.76},
      {"smiles": "CCCCc1noc(CN2CCc3ccc(F)cc32)n1", "% Inhibition": -4, "Z score": 0.58},
      {"smiles": "CC(NC(=O)[C@@H]1CC=CC[C@@H]1C(=O)O)c1ccc(-n2cccn2)cc1", "note": "(some centres undefined)", "% Inhibition": -2, "Z score": 0.29},
      {"smiles": "c1ccc2[nH]c(-c3ccc4[nH]c(C5CC5)nc4c3)nc2c1", "% Inhibition": -5, "Z score": 0.54},
      {"smiles": "CCCCN(Cc1ccco1)C(=O)Nc1ccc(OC)c(C(=O)N(C)C)c1", "% Inhibition": -11, "Z score": 2.15},
      {"smiles": "C#CC1(OC(=O)Nc2ccccc2)CCCCC1", "% Inhibition": 5, "Z score": -0.64},
      {"smiles": "CCN(CC(=O)NCc1ccccn1)CC1CC1", "% Inhibition": -3, "Z score": 0.37},
      {"smiles": "CCC[C@H]1CN(C(=O)CCc2ccccn2)C[C@@H]1N(C)C", "% Inhibition": -14, "Z score": 2.38},
      {"smiles": "CN1CCN(C(=O)C(F)(F)[C@@]2(F)OC(F)(F)C(F)(F)C2(F)F)CC1", "% Inhibition": -7, "Z score": 1.27},
      {"smiles": "Cn1ccnc1CNC[C@H]1Cn2c(-c3ccc4c(c3)OCCO4)cnc2CO1", "% Inhibition": -8, "Z score": 1.45},
      {"smiles": "COCCn1cnnc1CNC(=O)c1ccn(C)c1C", "% Inhibition": -1, "Z score": 0.1},
      {"smiles": "COCc1cc(CNc2ccc(C)nc2C)no1", "% Inhibition": -6, "Z score": 1.1},
      {"smiles": "CN1CCN(C(=O)c2cc(-c3ccc4c(c3)OCCO4)nc3ccccc23)CC1", "% Inhibition": -10, "Z score": 1.67},
      {"smiles": "O=C(NCc1cccs1)N1CC(Oc2cccc(C(F)(F)F)n2)C1", "% Inhibition": -9, "Z score": 1.8},
      {"smiles": "Cc1ncn(Cc2ncnn2-c2ccc3c(c2)OCO3)c1C", "% Inhibition": -8, "Z score": 1.6},
      {"smiles": "Cc1n[nH]c(CN(C)CCC2(O)CCCC2)c1Cl", "% Inhibition": 3, "Z score": -0.5},
      {"smiles": "CCNC(=O)c1ccccc1NC(=O)C(C)(C)C", "% Inhibition": -1, "Z score": 0.13},
      {"smiles": "COc1cccc(N2CCN(C(=O)c3ccc(-n4cnc(NC(C)=O)c4)cc3)CC2)c1", "% Inhibition": 15, "Z score": -1.72},
      {"smiles": "O=C1N[C@@H](CC2CCCCC2)C(=O)N[C@H]1COCc1ccccc1", "% Inhibition": -8, "Z score": 1.07},
      {"smiles": "O=C1NCCCCCCN(Cc2ccc(F)cc2F)[C@H]2CCC[C@@H]12", "% Inhibition": -20, "Z score": 2.62},
      {"smiles": "COCc1noc([C@@H]2CN(C(=O)c3ccc(Cl)s3)C[C@H]2C(N)=O)n1", "% Inhibition": -10, "Z score": 1.56},
      {"smiles": "O=C(CN1CCN(c2cccc(Cl)c2)C1=O)N1CCN(c2ccccc2O)CC1", "% Inhibition": 16, "Z score": -1.81},
      {"smiles": "CN(c1ccc(C(=O)O)cc1)S(=O)(=O)c1cnn(C2CCCC2)c1", "% Inhibition": 10, "Z score": -1.96}
    ]}
  ]
}
